Article PMC7039627 (mAbs, 2020)

Biological target: T1, mCD80-6xHis (mouse, UniProt Q00609)
T1 sequence: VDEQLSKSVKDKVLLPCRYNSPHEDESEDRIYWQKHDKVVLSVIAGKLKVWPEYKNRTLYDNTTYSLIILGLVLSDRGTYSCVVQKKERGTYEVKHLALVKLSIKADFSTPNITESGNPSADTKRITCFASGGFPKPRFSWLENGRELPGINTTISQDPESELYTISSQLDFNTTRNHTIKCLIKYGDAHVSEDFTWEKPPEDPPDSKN
Assay: ELISA

binding result: binds
B1: mCTLA-4-mFc dimer (Fc fusion)
chain: not shown
